Laboratory results taken from PubChem BioAssay AID686979 (National Center for Advancing Translational Sciences (NCATS), 2013).
Screen size: about 420,000 compounds; about 50,000 (12%) were called active. This list was built around the results that the source calls inconclusive (neither active nor inactive); the mix of calls is not that of the screen. Calls follow the shape of the dose curve; as a rule, active = well fitted inhibition curve with a large enough effect; inconclusive = small, poorly fitted or top-dose-only effect; inactive = flat fitted curve, though single readings scatter. No potency is given beside an inconclusive call; the fits are too rough.

Experiment: qHTS for Inhibitors of human tyrosyl-DNA phosphodiesterase 1 (TDP1): qHTS in cells in presence of CPT; also: nearly all actives have a fitted effect of over 55% in size
Details: chicken DT40 Tdp1-/-;hTDP1 cells + 20 nM CPT, ATP luminescence, 48 h; activity change, negative = growth inhibition: at 46.2 µM (top of the series)
Summary of the method: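 Chicken DT40 Tdp1-/- cells complemented with human TDP1, 400 cells/well, exposed to compounds plus 20 nM camptothecin for at least 48 h at 37 C; viability read as ATP content by CellTiter-Glo luminescence.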
% is scaled to controls: 0 for no effect and ±100 for the full control effect; potency is read from the fitted curve at half-maximal effect; tags tell the direction and shape of the fitted curve.

| Compound | activity change, negative = growth inhibition | Potency |
| --- | --- | --- |
| O=C(Cc1c(F)cccc1Cl)NC1=NCCS1 | inconclusive: -30.6% [inhibitor] |  |
| c1csc(-c2nc3c4ccccc4c4ccccc4c3[nH]2)c1 |  | active: 20.6 µM |
| Cc1ccc(S(=O)(=O)NCCc2ccncc2)cc1 |  | inconclusive [inhibitor, single point] |
| C[C@H](CO)N1C[C@H](C)[C@@H](CN(C)C(=O)Nc2ccc3c(c2)OCO3)Oc2c(NC(=O)Nc3ccc4c(c3)OCO4)cccc2C1=O |  | active: 16.4 µM |
| COC(=O)C1CCN(Cc2ccc3c(c2)CN(C(=O)c2ncc(C)[nH]2)CCO3)CC1 | inactive: 3.28% [at 9.04 µM] |  |
| COc1ccccc1N1CCN(Cc2ccc(OC)c(OC)c2OC)CC1 |  | inconclusive [inhibitor, partial curve] |
| O=C(Nc1ccc(-n2ccc(C(F)(F)F)n2)cc1)c1cccs1 |  | inconclusive [inhibitor, partial curve, poor fit] |
| COC(=O)C1=C(C)N(CCc2c[nH]c3ccccc23)C(=O)/C1=C\N(C)C |  | inconclusive [inhibitor, single point] |
| CCc1cnc(Nc2nc(C(N)Cc3ccc(Cl)cc3)cs2)nc1 (stereo not drawn) |  | inconclusive [inhibitor, single point] |
| Cc1ccc(CNC(=O)c2nc(SCc3cccc(C)c3)ncc2Cl)cc1 |  | inconclusive [inhibitor, single point] |
| CCCCn1c(N)c(N(CC(C)C)C(=O)C2=COCCO2)c(=O)[nH]c1=O | inactive: 4.62% |  |
| COc1ccc(S(=O)(=O)NCCSc2ccc(C)cc2)cc1OC |  | inconclusive [inhibitor, single point] |
| CCc1ccc(-n2nc3ccc(NC(=O)c4cc5ccccc5o4)cc3n2)cc1 |  | inconclusive [inhibitor, full curve, poor fit] |
| Cc1ccc(CNC(=O)c2cn(C)c3ccc(S(=O)(=O)N(C)C4CCCCC4)cc3c2=O)cc1 |  | inconclusive [inhibitor, single point] |
| CC(C)CCNC(=O)c1cc(S(=O)(=O)N2CCC3(CC2)OCCO3)ccc1F |  | inconclusive [inhibitor, single point] |
| COc1cccc(-n2c(C)nc3c(cnn3-c3ccc(Cl)cc3)c2=O)c1 |  | active: 8.2 µM |
| COc1cccc(/C=C2\Sc3ccc(C(=O)NCc4cccnc4)cc3N(C)C2=O)c1 |  | inconclusive [inhibitor, single point] |
| CCOCCOC(=O)c1[nH]c2c(c1C)C(=O)CC(c1ccc(N(C)C)cc1)C2 (stereo not drawn) |  | active: 23.1 µM |
| COc1ccc(S(=O)(=O)NC(=O)C2(C)CCN2C(=O)Cc2ccccc2)cc1OC (stereo not drawn) | inactive: -1.31% |  |
| CC(=O)c1ccc(N2CCN(C(=O)c3ccc4c(c3)OCO4)CC2)cc1 |  | inconclusive [inhibitor, partial curve, poor fit] |
| CCOc1ccc(N2C(=O)CC(Sc3nc(O)c(CC)c(=O)[nH]3)C2=O)cc1 (stereo not drawn) | inactive: 4.82% |  |
| Cc1ccc(C(=O)Nc2ccc(N3CCCC3)cc2)c(C)c1 |  | inconclusive [inhibitor, single point] |

| Compound | activity change, negative = growth inhibition | Potency |
| --- | --- | --- |
| CSc1nc(C)cc(Oc2ccc(OCCOc3ccccc3)nn2)n1 |  | inconclusive [inhibitor, single point] |
| CN(Cc1cnn(-c2ccc(F)cc2)c1)Cc1nc(Cc2ccccc2)no1 |  | inconclusive [inhibitor, single point] |
| Cc1ccc(CN2CCN(CCC(C)C)C(CCO)C2)s1 (stereo not drawn) | inactive: 13.1% |  |
| Cc1nn(C)c(C)c1/C=C(/C(=O)C(C)(C)C)n1cncn1 |  | inconclusive [inhibitor, single point] |
| Nc1cc(C(=O)c2ccccc2)ccc1N1CCOCC1 |  | inconclusive [inhibitor, partial curve] |
| Cc1cnc(NC(=O)c2ccc(F)c(S(=O)(=O)N3CCOCC3)c2)s1 |  | inconclusive [inhibitor, single point] |
| O=[N+]([O-])c1cccc(S(=O)(=O)/N=C(/Nc2ccccc2)c2ccccc2)c1 | inactive: -8.6% |  |
| CCN(Cc1ccc(OC)cc1)c1ccc(-c2nc(-c3ccncc3)no2)cc1[N+](=O)[O-] |  | inconclusive [inhibitor, single point] |
| CCc1ccc(OCC2c3cc(OC)c(OC)cc3CCN2C(=S)NC)cc1 (stereo not drawn) |  | inconclusive [inhibitor, single point] |
| O=C(CN1C(=O)NC2(CCCC2)C1=O)Nc1nc(-c2ccc(F)cc2)cs1 | inactive: -18.8% |  |
| O=C(CCC(=O)N1CCN(S(=O)(=O)c2ccc(Cl)cc2)CC1)NC1CCCc2ccccc21 (stereo not drawn) |  | inconclusive [inhibitor, single point] |
| CCn1c(=O)c(C(C)=O)nc2ccccc21 | inactive: -9.32% |  |
| COc1ccc(OC)c(S(=O)(=O)N2Cc3ccccc3CC2C(=O)Nc2ccc(C(C)=O)cc2)c1 (stereo not drawn) |  | inconclusive [inhibitor, single point] |
| Cc1ccccc1Nc1c(-c2ccsc2)nc2c(C)cccn12 |  | active: 16.4 µM |
| O=C(NCCc1ccccc1)c1ccc(Cn2c(SCc3ccc(F)cc3)nc3cccnc32)cc1 |  | inconclusive [inhibitor, single point] |
| c1ccc(-[n+]2nc(Nc3cccc4ccccc34)sc2-c2c3ccccc3cc3ccccc23)cc1 |  | inconclusive [inhibitor, single point] |
| Cc1cc(C)c(Cn2c3ccccc3c3cnn(CC(=O)NCCCc4ccccc4)c(=O)c32)c(C)c1 |  | active: 18.4 µM |
| O=C(Nc1nnc(-c2ccco2)o1)c1ccc(S(=O)(=O)N2CCCC2)cc1 |  | inconclusive [inhibitor, single point] |
| COC(=O)C1CCCN1S(=O)(=O)c1ccccc1NC(=O)c1cc(OC)c(OC)c(OC)c1 (stereo not drawn) |  | active: 14.6 µM |
| CCN(CC)c1ccc(/C=N/N2CCN(c3ccccc3OC)CC2)cc1 |  | inconclusive [inhibitor, single point] |
| O=C(CNC(=O)c1ccc(Br)o1)NCc1ccccc1 | inactive: -23.7% |  |
